Experiments:
[1] = target: HBV genotype D viruses (produced in HepG2.2.15 cell culture supernatant) (hepatitis B virus genotype D); test: cell-based or functional assay
[2] = target: T1, Adw S-HBs protein (adw HBsAg particles, GenHevac (Adw)) (hepatitis B virus, adw subtype); test: ELISA, AUC of binding curve; design: unit not given beside the values
T1 construct: also called GenHevac-B

[3] = target: T2, Ayw S-HBs protein (ayw HBsAg particles, Engerix-B (Ayw)) (hepatitis B virus, ayw subtype); test: ELISA, AUC of binding curve; design: unit not given beside the values
[4] = target: T1, Adw S-HBs protein (adw HBsAg particles, …); test: ELISA on recombinant HBV vaccine particles
[5] = target: T2, Ayw S-HBs protein (ayw HBsAg particles, …); test: ELISA on recombinant HBV vaccine particles

B1: Bv6.172 (antibody)
heavy: EVQLVQSGAAVRKPGESLRISCQASGFSFTNYWITWVRQRPGKGLEWMGRIDTRDSYTNYSPSFQGHVTISIDRSINTAYLQWSSLKASDTAMYYCARLSTTYPLNYYGMDVWGQGTTVTVSSASTKGPSVFPLAPSSKSTSGGTAALGCLVKDYFPEPVTVSWNSGALTSGVHTFPAVLQSSGLYSLSSVVTVPSSSLGTQTYICNVNHKPSNTKVDKRV[human IgG1 Fc not spelt out]
light: QSVLTQPPSVSGTPGQRVTISCTGSSSNIGANYDVNWYQQLPGTAPKVLIYGNTNRPSGVPDRFSGSKSGTSASLAITGLQAEDEADYYCQSYDTSLSGWVFGGGTKLTVLGQPKAAPSVTLFPPSSEELQANKATLVCLISDFYPGAVTVAWKADSSPVKAGVETTTPSKQSNNKYAASSYLSLTPEQWKSHRSYSCQVTHEGSTVEKTVAPTECS
For B1, which “HBV-gD in vitro neutralization (IC50 µg/ml)” value [1] is on record?
The value was 3.06e-06 µg/mL.

And the “AUC (serotype binding)” value [2]?
The value was 34.

And the “AUC (serotype binding)” value [3]?
Its value is 31.

What about the EC50 [4] of the same binder?
Its EC50 is 6.5 ng/mL.

And the EC50 [5]?
The EC50 was 4 ng/mL.

Source: patent publication US20230340081A1 (Hoffmann-La Roche, published 2023)
